# Paper PMC6919601, “Identification of Plasmodium dipeptidyl aminopeptidase allosteric inhibitors by high throughput screening” (PLoS ONE, 2019)
# The whole screen tested about 110,000 compounds, of which about 230 (0.21%) showed an effect of 50% or more. The list shows a part of the results.
# Target: DPAP1 (Plasmodium falciparum, UniProt Q8IIJ9)
# Test: primary screen, percent inhibition; read by cleavage of a fluorogenic dipeptide substrate; higher = more effect of the substance
# Design: species or system P. falciparum D10 trophozoite lysates; single well
# 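Note: 30 min substrate incubation versus DMSO and 10 µM JCP410 controls.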
# DPAP1, sequence (Q8IIJ9 whole entry, looked up): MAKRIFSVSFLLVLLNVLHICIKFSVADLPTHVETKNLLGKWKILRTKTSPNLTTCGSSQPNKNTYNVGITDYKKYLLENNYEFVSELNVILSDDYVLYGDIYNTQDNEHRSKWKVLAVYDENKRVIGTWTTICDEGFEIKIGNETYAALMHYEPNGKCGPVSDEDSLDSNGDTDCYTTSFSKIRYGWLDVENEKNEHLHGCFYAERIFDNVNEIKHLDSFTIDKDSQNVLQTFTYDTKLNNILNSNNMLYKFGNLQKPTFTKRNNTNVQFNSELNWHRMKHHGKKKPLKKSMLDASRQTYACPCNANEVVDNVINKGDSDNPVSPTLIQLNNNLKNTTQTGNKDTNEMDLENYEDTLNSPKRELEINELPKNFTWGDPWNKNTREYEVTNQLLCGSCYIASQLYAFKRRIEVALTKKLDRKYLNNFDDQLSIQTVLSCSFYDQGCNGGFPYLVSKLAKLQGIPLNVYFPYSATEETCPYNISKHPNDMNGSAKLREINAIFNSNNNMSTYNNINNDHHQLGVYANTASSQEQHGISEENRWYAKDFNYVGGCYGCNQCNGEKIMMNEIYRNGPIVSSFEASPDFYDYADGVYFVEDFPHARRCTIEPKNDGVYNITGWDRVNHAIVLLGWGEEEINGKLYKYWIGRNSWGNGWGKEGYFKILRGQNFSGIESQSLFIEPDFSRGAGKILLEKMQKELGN
row,SMILES,% Inhibition @ 10 uM [%]
1,CC1(C)CCC[C@@]2(C)C1CC[C@]1(C)OC(=O)C[C@H]21 (stereo partly shown),3.48
2,O/N=C1/CC(O)(C(F)(F)F)Oc2ccccc21 (stereo not shown),-5.41
3,CCN(CC)CCNC(=O)CS(=O)Cc1nc(-c2ccc(Cl)cc2)oc1C (stereo not shown),2.37
4,O=C1c2ccccc2C(Nc2ccc(Cl)cn2)N1c1cccnc1 (stereo not shown),-1.03
5,Cc1nnc(N2CCCC(C(=O)N3CCN(c4ccccn4)CC3)C2)c2nn(-c3ccccc3)c(C)c12 (stereo not shown),-3.24
6,O=C(/C=C/C(=O)Nc1cccc(O)c1)Nc1cccc(O)c1,-4.11
7,CN1C(=O)C(=CNc2cccc(F)c2)C(=O)N(C)C1=O,-0.996
8,Cc1cc2nc(O)c(O)nc2cc1S(=O)(=O)NC1CCCCCC1,1.27
9,CC(NC(=O)/C(C#N)=C/c1ccco1)c1ccccc1 (stereo not shown),16.1
10,Cc1cc(O)c(C2=Nc3ccccc3SC(c3ccc(O)cc3)C2)c(=O)o1 (stereo not shown),6.08
11,COc1ccc(-c2ccccc2)cc1NCC1=CC[C@H]2C[C@@H]1C2(C)C,1.83
12,Cc1cc(C)nc(NC(=O)c2ccc(C(=O)Nc3cc(C)cc(C)n3)cc2)c1,-8.67
13,CC(C)OC(=O)c1nnn(-c2nonc2N)c1CSc1nc2ccccc2o1,12
14,Cn1c(=O)c2c(nc(-c3ccccc3)n2C)n(Cc2ccccc2)c1=O,-9.3
15,C=C(C)Cn1c(SCCC)nc2c1c(=O)n(C)c(=O)n2C,-1.07
16,c1ccc(CCNc2nc(-c3c[nH]c4ccccc34)cs2)cc1,5.7
17,CC(C)c1ccc(-c2c(C#N)c(N)nc(SC3CCCCC3=O)c2C#N)cc1 (stereo not shown),0.587
18,CCOC(=O)C1=C(CSc2nc3ccccc3s2)NC(=O)NC1c1ccccc1C(F)(F)F (stereo not shown),2.99
19,Cc1ccc(Cn2c(C(=O)O)c(CNCCCc3ccccc3)c3ccc(C)cc32)cc1,4.67
20,C=CCOc1ccc(C(=O)N(Cc2sccc2C)C2CCS(=O)(=O)C2)cc1 (stereo not shown),2.19
21,COCC(=O)NCCc1nc2ccccc2n1C,3.49
22,COc1ccc(CNC(=O)c2cccc(C)c2)cc1,0.526
23,CCOc1ccc(NC(=O)c2ccc(NS(=O)(=O)c3cccc(C(F)(F)F)c3)cc2)cc1,-5.14
24,O=C(/C=c1\[nH]c(=O)/c(=C/c2cccnc2)s1)c1ccc(Cl)cc1,-5.11
25,O=C(Cc1ccccc1)Nc1ccccc1C(F)(F)F,-6.86

row,SMILES,% Inhibition @ 10 uM [%]
1,O=C(CN1CCN(Cc2ccccc2Cl)C1=O)NC1CCCCCCC1,-6.91
2,CC(=O)N1CCC(N2CCCCCC2)CC1,1.62
3,COc1ccc2c(CNCCc3cccs3)c(C(=O)O)n(Cc3ccc(F)cc3)c2c1,6.17
4,COc1ccccc1NC(=O)CCC(=O)O,-1.77
5,C=CCOc1ccc(C2C3=C(CC(C)(C)CC3=O)N(CCOC)C3=C2C(=O)CC(C)(C)C3)cc1OC,-2.44
6,CCCCCOc1ccc(C2c3c(-c4ccccc4O)n[nH]c3C(=O)N2CCCO)cc1OC (stereo not shown),0.366
7,CCc1nn(-c2cc(Oc3ccccc3C)ncn2)c(N)c1C#N,1.57
8,O=C1CC(N2CCc3ccccc32)C(=O)N1c1ccc(F)cc1 (stereo not shown),-4.15
9,CCOc1cccc2c1OC(c1ccc(F)c(F)c1)N1N=C(c3ccc(C)o3)CC21 (stereo not shown),10.7
10,C=CCNc1nc(Cl)nc(N2CCSCC2)n1,3.15
11,Cc1ccc(OCC(=O)Nc2nnc(C(C)C)s2)c(C)c1,0.685
12,CCN(CC)C(=O)c1ccc(CS(=O)(=O)c2ccccc2OC)o1,-3.09
13,O=C(NCCc1ccccc1)c1cnc2ccccc2n1,-5.72
14,Cc1[nH]nc2c1C(c1ccc(F)c(Br)c1)C(C#N)=C(N)O2 (stereo not shown),1.37
15,COc1cc(/C=C2\NC(=O)N(Cc3ccc(Cl)cc3)C2=O)cc(Cl)c1OCC(=O)O,8.37
16,COc1ccc(C2C(C(=O)Nc3cccnc3)=C(C)Nc3nc(-c4cccs4)nn32)c(OC)c1 (stereo not shown),-5.35
17,COc1ccccc1CN1CCN(Cc2ccccc2C(F)(F)F)CC1,0.993
18,Cc1cc(OCC(=O)NCc2nc(-c3ccccc3)no2)cc(C)c1Br,-1.22
19,CCOC(=O)C1=C(CN2CCN(c3ccc(Cl)nn3)CC2)NC(=O)NC1c1cccs1 (stereo not shown),-0.913
20,C=CCn1c(=O)n(Cc2ccccc2)c(=O)c2c3c(sc21)CCCC3,0.685
21,COc1cc2c(cc1OC)CN(Cc1ccc(-c3ccccc3)cc1)CC2,-1.92
22,COc1ccc(-c2csc(Nc3ccc(N)cc3)n2)cc1OC,3.35
23,CC1CCN(C(=O)CN2Cc3ccccc3C2=O)CC1,2.37
24,Cc1nnc2sc(NC(=O)COc3ccccc3F)nn12,7.1
25,O=C(Nc1ccccc1)Nc1ccc(S(=O)(=O)N2CCCC2)cc1,9.53

row,SMILES,% Inhibition @ 10 uM [%]
1,O=C(Cn1nc(C(F)(F)F)cc1C1CC1)Nc1ccc(F)cc1,-1.36
2,O=C(Nc1ccccc1Cl)NC1CCCc2ccccc21 (stereo not shown),-4.82
3,c1ccc(-c2csc(-c3c[nH]c4ccccc34)n2)cc1,0.147
4,O=C(O)c1cc(-c2ccccc2)nc2c(Cl)ccc(Cl)c12,3.72
5,CCCOc1ccc(Br)cc1C1NC(=O)NC(c2ccccc2)=C1C(C)=O (stereo not shown),-0.105
6,Nc1ccc2c(c1)C(=O)N(CC1CCCO1)C2=O (stereo not shown),0.189
7,O=C(O)c1ccccc1C(=O)n1cnc2ccccc21,-4.62
8,COc1ccc(/C=C\C=C\c2ccccc2)cc1,-1.38
9,COc1ccc(C2=NN(c3ccccc3)C(c3ccccc3C(F)(F)F)C2)cc1 (stereo not shown),1.88
10,CCn1cc(CN(Cc2ccccc2)C(=S)NC)c2ccccc21,4.42
11,c1ccc(OCc2nnc3sc(-c4ccccc4)nn23)cc1,9.4
12,Cc1ccccc1OCc1nc2c3cnn(-c4cc(Cl)ccc4Cl)c3ncn2n1,-6.5
13,CCCC(=O)NCn1nnc(-c2ccc(OC)cc2)n1,-0.834
14,CCO/C(O)=C1\C(C)=NC2=C(C(=O)c3ccccc32)C1c1cccc2ccccc12 (stereo not shown),2.24
15,Cn1nccc1C(=O)NC1C2CC3CC(C2)CC1C3 (stereo not shown),1.27
16,Cc1ccnc(NC(=O)C2CCCN(S(=O)(=O)c3c[nH]cn3)C2)c1 (stereo not shown),-1.89
17,CC(C)C[C@H](NC(=O)c1ccc(N2CCN(C)CC2)cc1)C(=O)N1CCN(C)CC1,6.4
18,CC(C)(C)NC(=O)COc1ccc(S(=O)(=O)NC2CCCCC2)cc1,4.74
19,COc1ccc(CN2CC(C)OC(C)C2)cc1C (stereo not shown),1.87
20,Cc1cc(C)c2c(N)c(C(=O)c3ccc(Cl)cc3)sc2n1,4.66
21,CCN(CC)CCN1C(=O)C(O)=C(C(=O)c2ccc3c(c2)OCCO3)C1c1cccc2ccccc12 (stereo not shown),-0.0619
22,CC1CCc2c(sc3c2c2nnc(S)n2c2nnc(S)n32)C1 (stereo not shown),-0.603
23,Cc1nn(C)c(C(=O)NC23CC4CC(CC(C4)C2)C3)c1Br,20.2
24,CC(=O)c1ccc(OCC(O)CN2CCN(Cc3ccc4c(c3)OCO4)CC2)cc1 (stereo not shown),-5.08
25,Cc1ccc(NC(=O)CCc2c(C)nc3ccc(C)cn3c2=O)nc1,2.39

row,SMILES,% Inhibition @ 10 uM [%]
1,CCC/N=c1\c(NS(=O)(=O)c2ccc(OC)c(Cl)c2)c(O)oc2ccccc12,-1.27
2,Cc1ccccc1C(=O)Nc1ccc(S(N)(=O)=O)cc1,0.709
3,CN(C)c1ccc(/C=C(\C#N)c2nc(-c3ccc([N+](=O)[O-])cc3)cs2)cc1,0.247
4,COc1ccc(-c2nnc(NC(=O)c3ccc(C)cc3)s2)cc1,-0.546
5,CC1=C(C(=O)Nc2ccccc2C)C(c2cccc(F)c2)n2nc(CCCO)nc2N1 (stereo not shown),-5.67
6,O=C(CC1Sc2ccccc2NC1=O)Nc1ccc2c(c1)OCO2 (stereo not shown),-1.86
7,O=C1N/C(=C/c2ccsc2)C(=O)N1Cc1ccccc1F,1.63
8,O=C(Nc1ccc(S(=O)(=O)N2CCOCC2)cc1)C1CC1,-4.14
9,Cc1ocnc1C(=O)O,-4.74
10,CCc1ccc(-c2cc(C(=O)NCCC(C)C)[nH]n2)cc1,0.514
11,O=C1NC(=O)/C(=C\c2cn(CC(=O)N3CCOCC3)c3ccccc23)S1,2.09
12,CC(C)(C)C1CCC(N2CCN(CCO)CC2)CC1 (stereo not shown),-0.0908
13,Cc1nn(C(C)C(=O)NCc2ccco2)c(=O)c2cc3occc3n12 (stereo not shown),-2
14,COCCN1C(=O)/C(=C\c2cccc(OC)c2O)C(C(=O)OC)=C1C,3.43
15,COc1ccc(Cl)cc1NC(=O)CCC(=O)Nc1cc(Cl)ccc1OC,1.89
16,CCN(CC)c1ccc(/C=C2\C(=O)NC(=S)N(c3cccc(Cl)c3)C2=O)c(O)c1,-4.98
17,Cc1ccc(Oc2nc3c(C)cccn3c(=O)c2/C=C(\C#N)C(=O)NC2CCCCC2)cc1,-11.1
18,CCOc1cccc2cc(S(=O)(=O)c3ccc(F)c(Cl)c3)c(=O)oc12,-1.3
19,CC(=O)CC(Nc1ccccc1)c1ccccc1 (stereo not shown),-8.51
20,CCOc1ccc2nc(NC(=O)CSc3nc(SC)ns3)sc2c1,5.12
21,COc1ccc(C2(C(=O)Nc3ccc(C(=O)Nc4cc(C)ccc4OC)cc3)CCOCC2)cc1,9.97
22,CCOC(=O)N1CCN(S(=O)(=O)c2ccc(C)c(C)c2)CC1,3.14
23,CC1=C(C(=O)Nc2cccc(F)c2)C(c2ccccc2Cl)C2=C(O)CC(C)(C)CC2=N1 (stereo not shown),-0.941
24,CC[C@H](C)NC(=O)CCCc1nnc2n(C)c(=O)c3sccc3n12,0.0603
25,Cc1ccc(CNC(=O)c2ccc3nc(N4CCOCC4)sc3c2)cc1,31.8
